The values below come from PMC5571198.

Sequences of proteins named here, by UniProt entry; tags and fusion partners are left off.
UniProt Q8VDS3: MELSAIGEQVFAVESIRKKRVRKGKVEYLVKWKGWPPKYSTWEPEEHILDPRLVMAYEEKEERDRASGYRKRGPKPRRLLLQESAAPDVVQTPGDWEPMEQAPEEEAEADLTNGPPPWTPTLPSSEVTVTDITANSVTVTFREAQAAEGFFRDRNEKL

For assay [1], the target named is T1, mouse USP26 in mouse ESCs (mouse) (UniProt Q99MX1).
T1 sequence: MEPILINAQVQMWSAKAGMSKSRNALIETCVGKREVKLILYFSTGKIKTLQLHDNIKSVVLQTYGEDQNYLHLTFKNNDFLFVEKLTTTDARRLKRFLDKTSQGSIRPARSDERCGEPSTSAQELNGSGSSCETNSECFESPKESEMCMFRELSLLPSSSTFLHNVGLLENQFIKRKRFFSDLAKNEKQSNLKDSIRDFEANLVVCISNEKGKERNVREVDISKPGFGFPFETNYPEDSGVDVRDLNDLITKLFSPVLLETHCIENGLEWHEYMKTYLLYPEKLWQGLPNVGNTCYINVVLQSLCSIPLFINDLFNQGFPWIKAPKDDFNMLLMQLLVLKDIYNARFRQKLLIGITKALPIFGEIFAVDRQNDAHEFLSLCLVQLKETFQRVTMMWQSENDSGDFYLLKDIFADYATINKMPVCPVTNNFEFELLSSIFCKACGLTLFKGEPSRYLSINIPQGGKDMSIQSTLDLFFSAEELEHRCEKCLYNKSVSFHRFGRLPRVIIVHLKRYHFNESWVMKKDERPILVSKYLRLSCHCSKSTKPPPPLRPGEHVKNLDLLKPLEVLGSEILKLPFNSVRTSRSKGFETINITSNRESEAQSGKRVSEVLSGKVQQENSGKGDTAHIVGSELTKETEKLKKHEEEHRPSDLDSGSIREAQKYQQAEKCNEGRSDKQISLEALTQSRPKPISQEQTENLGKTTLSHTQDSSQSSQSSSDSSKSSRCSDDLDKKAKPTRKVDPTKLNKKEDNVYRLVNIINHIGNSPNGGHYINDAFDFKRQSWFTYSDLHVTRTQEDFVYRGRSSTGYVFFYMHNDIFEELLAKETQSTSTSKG
As to the kind of experiment: co-IP; mouse ESCs infected with or without mouse USP26 lentivirus, extracts harvested at different time points (differentiating ESCs); IP with anti-USP26 antibody, western blot with specific antibodies. In general terms: In western blotting, separated proteins are transferred to a membrane and probed.

Assay [2] has as its target T2, FLAG-tagged human (h) USP26 (ubiquitin-specific protease 26) (human) (UniProt Q9BXU7).
T2 sequence: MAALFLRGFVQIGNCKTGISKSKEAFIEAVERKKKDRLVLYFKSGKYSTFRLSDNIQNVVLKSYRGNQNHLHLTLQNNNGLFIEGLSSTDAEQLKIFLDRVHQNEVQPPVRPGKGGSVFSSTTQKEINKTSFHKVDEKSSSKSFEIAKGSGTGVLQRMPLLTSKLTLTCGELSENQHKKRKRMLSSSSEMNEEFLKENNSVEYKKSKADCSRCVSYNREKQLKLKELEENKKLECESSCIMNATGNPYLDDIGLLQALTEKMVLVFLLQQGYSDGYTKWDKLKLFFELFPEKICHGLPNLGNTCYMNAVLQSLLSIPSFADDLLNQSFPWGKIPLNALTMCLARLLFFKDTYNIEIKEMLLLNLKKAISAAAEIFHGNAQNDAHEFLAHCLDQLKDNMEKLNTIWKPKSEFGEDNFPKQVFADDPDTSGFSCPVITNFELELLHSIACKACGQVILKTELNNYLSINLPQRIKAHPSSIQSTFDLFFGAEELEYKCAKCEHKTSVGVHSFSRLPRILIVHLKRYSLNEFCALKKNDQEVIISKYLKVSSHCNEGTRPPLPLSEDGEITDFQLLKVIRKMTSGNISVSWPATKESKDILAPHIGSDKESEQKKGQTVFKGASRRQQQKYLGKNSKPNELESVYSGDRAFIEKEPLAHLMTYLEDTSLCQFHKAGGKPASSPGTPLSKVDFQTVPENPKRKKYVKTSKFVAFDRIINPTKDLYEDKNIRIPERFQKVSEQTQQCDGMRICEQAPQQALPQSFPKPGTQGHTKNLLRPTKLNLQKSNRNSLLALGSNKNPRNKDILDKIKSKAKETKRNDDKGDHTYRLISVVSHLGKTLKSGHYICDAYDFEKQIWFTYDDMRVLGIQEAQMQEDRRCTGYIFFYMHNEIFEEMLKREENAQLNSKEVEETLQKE
As to the kind of experiment: co-IP; 293T cells (also RING1A KO 293T cells, Supplementary Fig. 3b) co-transfected with HA-tagged PRC1 component and FLAG-hUSP26; lysed 48 h after transfection in 50 mM Tris-HCl pH 8.0, 150 mM NaCl, 1 mM EDTA, 1% Nonidet P-40, 2 mM MgCl2, benzonase, 10% glycerol; IP with anti-FLAG, western blot with anti-HA (Fig. 4a; Supplementary Fig. 3a).

In assay [3] the target is T2, FLAG-tagged human (h) USP26 (ubiquitin-specific protease 26) (human). As to the kind of experiment: co-IP; RING1A knockout 293T cells transfected with FLAG-USP26; IP with anti-FLAG antibody, western blot with specific antibodies for the endogenous proteins.

These are yes or no findings as the source states them, for the method shown. In cells and extracts the contact can be indirect. Some results given as binding are weak or reduced against the parent protein; the word gives no strength. For part of these data: Where a sequence is shown, tags or fusion partners need not be part of it.

With “CBX7 (endogenous in mouse ESCs) (from UniProt Q8VDS3 1-158)”, the binding entry in assay [1] was “no binding”.

B1: PHC1 (protein, UniProt P78364 1-1004)
chain: METESEQNSNSTNGSSSSGGSSRPQIAQMSLYERQAVQALQALQRQPNAAQYFHQFMLQQQLSNAQLHSLAAVQQATIAASRQASSPNTSTTQQQTTTTQASINLATTSAAQLISRSQSVSSPSATTLTQSVLLGNTTSPPLNQSQAQMYLRPQLGNLLQVNRTLGRNVPLASQLILMPNGAVAAVQQEVPSAQSPGVHADADQVQNLAVRNQQASAQGPQMQGSTQKAIPPGASPVSSLSQASSQALAVAQASSGATNQSLNLSQAGGGSGNSIPGSMGPGGGGQAHGGLGQLPSSGMGGGSCPRKGTGVVQPLPAAQTVTVSQGSQTEAESAAAKKAEADGSGQQNVGMNLTRTATPAPSQTLISSATYTQIQPHSLIQQQQQIHLQQKQVVIQQQIAIHHQQQFQHRQSQLLHTATHLQLAQQQQQQQQQQQQQQQPQATTLTAPQPPQVPPTQQVPPSQSQQQAQTLVVQPMLQSSPLSLPPDAAPKPPIPIQSKPPVAPIKPPQLGAAKMSAAQQPPPHIPVQVVGTRQPGTAQAQALGLAQLAAAVPTSRGMPGTVQSGQAHLASSPPSSQAPGALQECPPTLAPGMTLAPVQGTAHVVKGGATTSSPVVAQVPAAFYMQSVHLPGKPQTLAVKRKADSEEERDDVSTLGSMLPAKASPVAESPKVMDEKSSLGEKAESVANVNANTPSSELVALTPAPSVPPPTLAMVSRQMGDSKPPQAIVKPQILTHIIEGFVIQEGAEPFPVGCSQLLKESEKPLQTGLPTGLTENQSGGPLGVDSPSAELDKKANLLKCEYCGKYAPAEQFRGSKRFCSMTCAKRYNVSCSHQFRLKRKKMKEFQEANYARVRRRGPRRSSSDIARAKIQGKCHRGQEDSSRGSDNSSYDEALSPTSPGPLSVRAGHGERDLGNPNTAPPTPELHGINPVFLSSNPSRWSVEEVYEFIASLQGCQEIAEEFRSQEIDGQALLLLKEEHLMSAMNIKLGPALKICAKINVLKET
Turning to B1, the binding entry in assay [2] is “no binding”.

B2: CBX6 (endogenous in mouse ESCs) (protein, UniProt Q9DBY5 1-414)
chain: MELSAVGERVFAAESIIKRRIRKGRIEYLVKWKGWAIKYSTWEPEENILDSRLIAAFEQKERERELYGPKKRGPKPKTFLLKARAQAEALRISDVHFSVKPSASASSPKLHSSAAVHRLKKDIRRCHRMSRRPLPRPDPQGGSPGLRPPISPFSETVRIINRKVKPREPKRNRIILNLKVIDKGPGGGSTAQGTGALARPKVPSRNRVIGKSKKFSESMLRTQIRHMKFGTFALYKPPPAPLAPSTAGKADVASSGPGLLLATPAAAPFDAHSSSSSGCPSPTLQSSDPDDAPPKLLPETLSRSVPNWRESEVLDLSIPPEAAATGQRVPPDVTGAADQALHTALEPTGAGSSEPEAGDWRPEMSPCSNVVVTDVTSNLLTVTIKEFCSPEDFEKVAAGVAGATGGGGGTGPSK
Turning to B2, the binding result in assay [1] is on record as “binds”.

B3: CBX4 (endogenous in 293T cells) (protein, UniProt O00257 1-560)
chain: MELPAVGEHVFAVESIEKKRIRKGRVEYLVKWRGWSPKYNTWEPEENILDPRLLIAFQNRERQEQLMGYRKRGPKPKPLVVQVPTFARRSNVLTGLQDSSTDNRAKLDLGAQGKGQGHQYELNSKKHHQYQPHSKERAGKPPPPGKSGKYYYQLNSKKHHPYQPDPKMYDLQYQGGHKEAPSPTCPDLGAKSHPPDKWAQGAGAKGYLGAVKPLAGAAGAPGKGSEKGPPNGMMPAPKEAVTGNGIGGKMKIVKNKNKNGRIVIVMSKYMENGMQAVKIKSGEVAEGEARSPSHKKRAADERHPPADRTFKKAAGAEEKKVEAPPKRREEEVSGVSDPQPQDAGSRKLSPTKEAFGEQPLQLTTKPDLLAWDPARNTHPPSHHPHPHPHHHHHHHHHHHHAVGLNLSHVRKRCLSETHGEREPCKKRLTARSISTPTCLGGSPAAERPADLPPAAALPQPEVILLDSDLDEPIDLRCVKTRSEAGEPPSSLQVKPETPASAAVAVAAAAAPTTTAEKPPAEAQDEPAESLSEFKPFFGNIIITDVTANCLTVTFKEYVTV
For the molecule B3, the binding entry in assay [3] is recorded as “binds”.

B4: KDM2B (protein, UniProt Q8NHM5 1-1336)
chain: MAGPQMGGSAEDHPPRKRHAAEKQKKKTVIYTKCFEFESATQRPIDRQRYDENEDLSDVEEIVSVRGFSLEEKLRSQLYQGDFVHAMEGKDFNYEYVQREALRVPLIFREKDGLGIKMPDPDFTVRDVKLLVGSRRLVDVMDVNTQKGTEMSMSQFVRYYETPEAQRDKLYNVISLEFSHTKLEHLVKRPTVVDLVDWVDNMWPQHLKEKQTEATNAIAEMKYPKVKKYCLMSVKGCFTDFHIDFGGTSVWYHVFRGGKIFWLIPPTLHNLALYEEWVLSGKQSDIFLGDRVERCQRIELKQGYTFFIPSGWIHAVYTPVDSLVFGGNILHSFNVPMQLRIYEIEDRTRVQPKFRYPFYYEMCWYVLERYVYCVTQRSHLTQEYQRESMLIDAPRKPSIDGFSSDSWLEMEEEACDQQPQEEEEKDEEGEGRDRAPKPPTDGSTSPTSTPSEDQEALGKKPKAPALRFLKRTLSNESEESVKSTTLAVDYPKTPTGSPATEVSAKWTHLTEFELKGLKALVEKLESLPENKKCVPEGIEDPQALLEGVKNVLKEHADDDPSLAITGVPVVTWPKKTPKNRAVGRPKGKLGPASAVKLAANRTTAGARRRRTRCRKCEACLRTECGECHFCKDMKKFGGPGRMKQSCIMRQCIAPVLPHTAVCLVCGEAGKEDTVEEEEGKFNLMLMECSICNEIIHPGCLKIKESEGVVNDELPNCWECPKCNHAGKTGKQKRGPGFKYASNLPGSLLKEQKMNRDNKEGQEPAKRRSECEEAPRRRSDEHSKKVPPDGLLRRKSDDVHLRKKRKYEKPQELSGRKRASSLQTSPGSSSHLSPRPPLGSSLSPWWRSSLTYFQQQLKPGKEDKLFRKKRRSWKNAEDRMALANKPLRRFKQEPEDELPEAPPKTRESDHSRSSSPTAGPSTEGAEGPEEKKKVKMRRKRRLPNKELSRELSKELNHEIQRTENSLANENQQPIKSEPESEGEEPKRPPGICERPHRFSKGLNGTPRELRHQLGPSLRSPPRVISRPPPSVSPPKCIQMERHVIRPPPISPPPDSLPLDDGAAHVMHREVWMAVFSYLSHQDLCVCMRVCRTWNRWCCDKRLWTRIDLNHCKSITPLMLSGIIRRQPVSLDLSWTNISKKQLSWLINRLPGLRDLVLSGCSWIAVSALCSSSCPLLRTLDVQWVEGLKDAQMRDLLSPPTDNRPGQMDNRSKLRNIVELRLAGLDITDASLRLIIRHMPLLSKLHLSYCNHVTDQSINLLTAVGTTTRDSLTEINLSDCNKVTDQCLSFFKRCGNICHIDLRYCKQVTKEGCEQFIAEMSVSVQFGQVEEKLLQKLS
With B4, the binding result in assay [2] is given as “no binding”.

B5: CBX4 (endogenous in mouse ESCs) (protein, UniProt O55187 1-551)
chain: MELPAVGEHVFAVESIEKKRIRKGRVEYLVKWRGWSPKYNTWEPEENILDPRLLIAFQNRERQEQLMGYRKRGPKPKPLVVQVPTFARRSNVLTGLQDSSADNRAKLELGTQGKGQGHQYELNSKKHHQYQPHSKERSGKPPPPGKSGKYYYQLNSKKHHPYQPDPKMYDLQYQGGHKEAPSPTCPDLGTKSHPPDKWAHGAAAKGYLGAVKPLGGGAGAPGKGSEKGPPNGMTPAPKEAVTGNGIGGKMKIVKNKNKNGRIVIVMSKYMENGMQAVKIKSGEAAEGEARSPSHKKRAAEERHPQGDRTFKKAAGASEEKKAEVPCKRREEEALVSGDAQPQDLGSRKLSPTKEAFGEQPLQLTTKPDLLAWDPARSSHPPAHHHHHHHHHHHHHTVGLNLSHARKRCLSETHGEREPCKKRLTARSISTPTCLGGSPVSEHPANVSPTAASLPQPEVILLDSDLDEPIDLRCVKMRSDAGEPPSTLQVKPEAPAVAAVVAPAPASEKPPAEAQEEPVEPLSEFKPFFGNIIITDVTANCLTVTFKEYVTV
Consider B5, for which the binding result in assay [1] was “binds”.
